# Paper PMC4336329 (PLoS ONE, 2015)
# Screen size: about 310,000 compounds; about 2,200 (0.71%) showed an effect of 50% or more. Effects have a minus sign here. Some of the results follow.
# Biological target: human ether-à-go-go-related gene (hERG) potassium channel (human, UniProt Q12809)
# Assay: primary screen, population patch clamp on CHO cells stably expressing hERG
# Sequence of human ether-à-go-go-related gene (hERG) potassium channel (Q12809 whole entry, looked up): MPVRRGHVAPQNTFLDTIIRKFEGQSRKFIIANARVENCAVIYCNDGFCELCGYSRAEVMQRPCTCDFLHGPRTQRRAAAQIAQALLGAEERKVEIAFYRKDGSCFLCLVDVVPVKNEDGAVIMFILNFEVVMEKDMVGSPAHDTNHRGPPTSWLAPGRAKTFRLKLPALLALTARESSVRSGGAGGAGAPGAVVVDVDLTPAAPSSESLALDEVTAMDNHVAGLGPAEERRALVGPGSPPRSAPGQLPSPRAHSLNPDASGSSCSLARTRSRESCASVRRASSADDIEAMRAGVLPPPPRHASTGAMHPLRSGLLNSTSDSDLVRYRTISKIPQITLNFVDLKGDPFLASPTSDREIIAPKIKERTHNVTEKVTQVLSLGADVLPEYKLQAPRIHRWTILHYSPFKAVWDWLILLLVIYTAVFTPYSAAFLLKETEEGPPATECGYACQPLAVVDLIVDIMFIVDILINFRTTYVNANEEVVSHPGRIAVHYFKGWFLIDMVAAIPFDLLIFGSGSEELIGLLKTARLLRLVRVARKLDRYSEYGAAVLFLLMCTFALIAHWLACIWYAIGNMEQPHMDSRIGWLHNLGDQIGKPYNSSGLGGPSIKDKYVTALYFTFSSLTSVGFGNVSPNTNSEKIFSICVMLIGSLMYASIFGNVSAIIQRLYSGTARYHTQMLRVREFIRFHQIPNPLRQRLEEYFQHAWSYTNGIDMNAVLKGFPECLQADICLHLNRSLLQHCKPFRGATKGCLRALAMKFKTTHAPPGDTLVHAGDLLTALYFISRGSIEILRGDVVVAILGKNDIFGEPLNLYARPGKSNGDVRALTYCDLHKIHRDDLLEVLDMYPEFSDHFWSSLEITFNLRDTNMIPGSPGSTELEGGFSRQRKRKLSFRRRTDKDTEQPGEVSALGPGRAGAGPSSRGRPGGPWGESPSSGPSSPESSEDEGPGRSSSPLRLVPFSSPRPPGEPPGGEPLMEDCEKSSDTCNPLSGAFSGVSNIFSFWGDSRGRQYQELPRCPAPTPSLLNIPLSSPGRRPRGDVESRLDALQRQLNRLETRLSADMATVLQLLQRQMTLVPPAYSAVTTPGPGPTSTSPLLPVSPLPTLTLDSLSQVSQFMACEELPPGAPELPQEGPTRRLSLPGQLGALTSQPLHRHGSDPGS
row,SMILES,"hERG current change (%, negative = inhibition) at 1uM"
1,CCOc1cc(CNn2cnnc2)cc(Br)c1OCC(=O)NC(C)(C)C,14.4%
2,O=C1CN(C(=O)COC(=O)c2cccc(OCc3ccccc3)c2)c2ccccc2N1,0.999%
3,O=S(=O)(c1cnc(Cl)c(Br)c1)N1CCN(c2ncccn2)CC1,11.5%
4,COc1ccccc1OCCn1cc(/C=N/n2cnnc2)c2ccccc21,11.6%
5,O=C(c1ccc2c(c1)OCO2)C1CCCN(Cc2cn[nH]c2-c2ccccc2)C1 (stereo not drawn),-67.3%
6,CCCC1(C)Nc2ccccc2-c2nc3ccccc3n21 (stereo not drawn),1.59%
7,Cc1ccc(-n2nnnc2SCC(=O)c2c(N)n(CC(C)C)c(=O)n(C)c2=O)cc1,-31.8%
8,Cc1ccc(-c2cc(C(=O)O)c3cc(Br)ccc3n2)s1,10.4%
9,Cc1ccc2nc(-c3cccnc3SCC(=O)N3c4ccccc4CC3C)[nH]c2c1 (stereo not drawn),12%
10,CSc1nccc(-c2sc(SC)c(C#N)c2-c2ccccc2)n1,14.5%
11,CC1CCC(NC(=O)CCNC(=O)c2ccccc2)CC1 (stereo not drawn),10.4%
12,CCCCN(CC)C(=O)Cn1nc(Cc2ccncc2)c2ccccc2c1=O,0.392%
13,O=[N+]([O-])c1ccc(N2CCC(=NOCc3ccc(Cl)cc3)CC2)cc1,-13.9%
14,Cc1nn(CC(=O)NCCC2=CCCCC2)c(C)c1[N+](=O)[O-],11.5%
15,O=C(Cc1ccc(F)cc1)N1CCOCC1,15.3%
16,CCCN(CCC)C(=O)Cn1c(=O)n(CCCCC(=O)NCc2ccco2)c(=O)c2ccccc21,-1.34%
17,CCc1nnc(NC(=O)CCNC(=O)c2ccco2)s1,9.02%
18,COC(=O)COc1cc(OCC(=O)OC)c2c(-c3ccccc3)cc(=O)oc2c1,7.12%
19,COc1ccc(NC(=O)CC(c2ccc(F)cc2)c2ccc(OC)cc2)cc1 (stereo not drawn),16.7%

row,SMILES,"hERG current change (%, negative = inhibition) at 1uM"
1,Cc1nnc2n(C)c(=O)c3c4c(sc3n12)COC(C)(C)C4,8.77%
2,Cc1ccc(N2CCN(S(=O)(=O)c3ccc(F)c(C)c3)CC2)c(C)c1,4.57%
3,O=C(CSc1nc(O)c(Cc2ccccc2)c(=O)n1-c1ccccc1)N1CCOCC1,-2.88%
4,CC1Sc2ccc(S(=O)(=O)CCC(=O)N3CCN(c4cccc(Cl)c4)CC3)cc2NC1=O (stereo not drawn),11.2%
5,CCOC(=O)CSc1nc(N)c(C#N)cc1C#N,-4.41%
6,CNC(=O)CN(C)S(=O)(=O)c1ccc(F)cc1,-1.73%
7,COc1ccc(NC(=O)c2sc3nc(Cc4ccccc4)cc(C(F)(F)F)c3c2N)cc1OC,8.31%
8,C/C(=N\Nc1cc(C)nc(NCc2ccccc2)n1)c1ccc([N+](=O)[O-])cc1,17.8%
9,COC(=O)C1C(O)=C(C=Nc2ccccc2)C(=O)CC1(C)C (stereo not drawn),8.18%
10,CC(Oc1ccccc1)C(=O)N(CCC1=CCCCC1)c1c(N)n(Cc2ccccc2)c(=O)[nH]c1=O (stereo not drawn),7.41%
11,COc1ccc(COC(=O)c2ccc(Cl)c(S(=O)(=O)N3CC(C)OC(C)C3)c2)cc1 (stereo not drawn),-0.118%
12,O=C(COc1ccc(C(=S)N2CCCC2)cc1)Nc1ccc(F)cc1,4.37%
13,CCOC(=O)CC1(NC(=O)c2cc(COc3ccc(F)c(F)c3)on2)CCCCC1,7.08%
14,CN(c1ccccc1)c1ccc(/C=c2\s/c(=C(/C#N)C(=O)C(C)(C)C)n(Cc3ccco3)c2=O)cc1,8.84%
15,O=[N+]([O-])c1ccccc1CNCCCCCO,-1.63%
16,CC12CCC(c3c(CO)nn(-c4ccccc4)c31)C2(C)C (stereo not drawn),-3.9%
17,CC(C(=O)Nc1ccccn1)N1C(=O)C2C3C=CC(C3)C2C1=O (stereo not drawn),10.9%
18,O=c1c2ccccc2nc(/C=C/c2ccc(Br)cc2)n1CCO,9.05%
19,COc1ccc2nc(SCc3cccc(C)c3)nc(C)c2c1,-7.86%

row,SMILES,"hERG current change (%, negative = inhibition) at 1uM"
1,CC(C)(C)N(Cc1ccccc1)C(=O)COC(=O)CSc1ccc([N+](=O)[O-])cc1,14.9%
2,COc1cc(S(N)(=O)=O)c(OC)cc1N,23.6%
3,CCCn1c(NCCO)nc2ccccc21,9.44%
4,O=C(NCc1ccccc1Cl)C1CCCN1C(=O)NCc1ccccc1 (stereo not drawn),14.7%
5,COn1c(-n2nc(C)cc2C)nc2ccccc2c1=O,15.2%
6,O=C(c1cc(Cl)nc2ccccc12)N(Cc1nnc(-c2ccc(Cl)cc2)o1)C1CC1,-13.4%
7,O=C(/C=C/c1ccc2c(c1)OCO2)NCc1cn2cc(Cl)ccc2n1,10.9%
8,O=C(CSc1nnc(CNC(=O)c2c(F)cccc2Cl)o1)NCCc1ccccc1,3.91%
9,CNC(=S)Nc1ccc(Br)cc1,3.15%
10,CCCNS(=O)(=O)c1ccc(OC)c(Cl)c1Cl,0.827%
11,O=C(CCNc1cccc(F)c1)c1cc2ccccc2o1,7.33%
12,COc1cccc(OC)c1C(=O)Nc1ccc(N2CCN(C(=O)c3ccco3)CC2)cc1,12.3%
13,Oc1ccc(NC(=S)Nc2ccc(O)cc2)cc1,10.9%
14,Cc1cccc(CSc2nc3c(c(=O)n2C)SCC3)c1,1.94%
15,Cc1ccc2c(Cl)c(C(=O)NCCCn3ccnc3)sc2c1,-1.11%
16,Cc1ccccc1CN1CCN(CC(=O)NCCCN2CCN(c3ccc(F)cc3)CC2)C1=O,-52%
17,COc1ccc(OCCN(C)Cc2ccccc2)cc1,-10.7%
18,COC(=O)c1ccc(C2/C(=C(/O)c3ccc4c(c3)CC(C)O4)C(=O)C(=O)N2Cc2ccncc2)cc1 (stereo not drawn),12.7%
19,COc1ccc(OC)c(/C=C2\Oc3cc(OCC(=O)N4CCC(C(=O)O)CC4)ccc3C2=O)c1,-5.15%
